Reference: the supplement of paper PMC7266297
Counter-ions that a name gives are not always drawn. This is one part of the list. Most values come without repeats; read them as rough.

How the values were obtained:
KB-3-1 = test: growth inhibition relative to DMSO control (SRB); cervical cancer cells: KB-3-1 is the parent and KB-V1 overexpresses MDR1; SRB is the sulforhodamine B stain; higher = more growth inhibition; details: 1 µM; 72 h
KB-V1 = test: as above; details: 1 µM; 72 h
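Further: Read-out is SRB optical density at 490 nm, with the control being wells given 0.5% DMSO vehicle, and compound added one day after cells were plated.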

Row | Structure (SMILES) | growth inhibition (KB-3-1) [%] | growth inhibition (KB-V1) [%]
1 | CCCCCCCCc1ccc(CCC(N)(CO)CO)cc1 [Fingolimod (FTY720) HCl] | 36.2 | 11
2 | c1ccc2c(CCNc3ccc(Nc4ccncc4)cc3)c[nH]c2c1 | 86 | 57.4
3 | c1cnc2cc3c(cc2n1)[C@@H]1CNC[C@H]3C1 [Varenicline Tartrate] | 11.8 | 32.3
4 | Cc1cccc(-c2[nH]c(C(C)(C)C)nc2-c2ccc3c(c2)OCO3)n1 | 33.7 | 62.6
5 | COc1cc2ncnc(Nc3ccc(F)c(Cl)c3)c2cc1NC(=O)/C=C/CN1CCCCC1 | < 0 | 17.2
6 | C[N+](C)(C)CCOC(=O)CCC(=O)OCC[N+](C)(C)C [Succinylcholine Chloride Dihydrate] | 40.5 | < 0
7 | COc1cc2c(N3CCN(C(=O)Nc4ccc(OC(C)C)cc4)CC3)ncnc2cc1OCCCN1CCCCC1 [Tandutinib (MLN518)] | 78.4 | 75.8
8 | CO[C@H]1/C=C\C=C(/C)C(=O)NC2=CC(=O)C(NCCN(C)C)=C(C[C@@H](C)C[C@H](OC)[C@H](O)[C@@H](C)/C=C(\C)[C@@H]1OC(N)=O)C2=O [17-DMAG (Alvespimycin) HCl] | 90.8 | 63
9 | CNC[C@@H](O)c1ccc(O)c(O)c1 [L-Adrenaline] | 31.3 | 10.6
10 | CCc1c2c(nc3ccc(OC(=O)N4CCC(N5CCCCC5)CC4)cc13)-c1cc3c(c(=O)n1C2)COC(=O)[C@]3(O)CC [Irinotecan] | 55.2 | 44
11 | COc1cc2nc(N3CCN(C(=O)C4COc5ccccc5O4)CC3)nc(N)c2cc1OC (configuration not stated) [Doxazosin Mesylate] | 14.2 | 45.5
